# In paper PMC4336329 (PLoS ONE, 2015):
# Hit rate of the full screen: of about 310,000 compounds, about 14,000 (4.5%) showed an effect of 50% or more. Effects have a minus sign here. The list shows a part of the results.
# Target: human ether-à-go-go-related gene (hERG) potassium channel (human, UniProt Q12809)
# Assay: primary screen, population patch clamp on CHO cells stably expressing hERG
# Method: Briefly, Chinese hamster ovary (CHO) cells stably expressing the hERG channel were dislodged from tissue culture flasks and dispensed into PPC plates. […] During the recording, background leak currents were estimated by a 100 ms step to -80 mV from an initial holding potential of -70 mV and subtracted from the subsequent current measurement. The campaign was conducted in two phases using slight differences in recording protocol. In the first phase, the initial voltage pulse used a 100 ms step to -30 mV from a holding potential of -70 mV, a 2 s conditioning step to +25 mV, and a 2 s test step to -30 mV. During the second phase of the screen, the potential during the conditioning step was raised to +45 mV. In both phases of the campaign, a secondary voltage pulse was applied using the same parameters as the second phase initial pulse. The initial and secondary pulses were applied in the absence of compound, and upon application of 1 μM and 10 μM test concentrations. […]
# 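Further: peak tail current of the secondary pulse compared with the same well before compound.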
# human ether-à-go-go-related gene (hERG) potassium channel, sequence (Q12809 whole entry, looked up): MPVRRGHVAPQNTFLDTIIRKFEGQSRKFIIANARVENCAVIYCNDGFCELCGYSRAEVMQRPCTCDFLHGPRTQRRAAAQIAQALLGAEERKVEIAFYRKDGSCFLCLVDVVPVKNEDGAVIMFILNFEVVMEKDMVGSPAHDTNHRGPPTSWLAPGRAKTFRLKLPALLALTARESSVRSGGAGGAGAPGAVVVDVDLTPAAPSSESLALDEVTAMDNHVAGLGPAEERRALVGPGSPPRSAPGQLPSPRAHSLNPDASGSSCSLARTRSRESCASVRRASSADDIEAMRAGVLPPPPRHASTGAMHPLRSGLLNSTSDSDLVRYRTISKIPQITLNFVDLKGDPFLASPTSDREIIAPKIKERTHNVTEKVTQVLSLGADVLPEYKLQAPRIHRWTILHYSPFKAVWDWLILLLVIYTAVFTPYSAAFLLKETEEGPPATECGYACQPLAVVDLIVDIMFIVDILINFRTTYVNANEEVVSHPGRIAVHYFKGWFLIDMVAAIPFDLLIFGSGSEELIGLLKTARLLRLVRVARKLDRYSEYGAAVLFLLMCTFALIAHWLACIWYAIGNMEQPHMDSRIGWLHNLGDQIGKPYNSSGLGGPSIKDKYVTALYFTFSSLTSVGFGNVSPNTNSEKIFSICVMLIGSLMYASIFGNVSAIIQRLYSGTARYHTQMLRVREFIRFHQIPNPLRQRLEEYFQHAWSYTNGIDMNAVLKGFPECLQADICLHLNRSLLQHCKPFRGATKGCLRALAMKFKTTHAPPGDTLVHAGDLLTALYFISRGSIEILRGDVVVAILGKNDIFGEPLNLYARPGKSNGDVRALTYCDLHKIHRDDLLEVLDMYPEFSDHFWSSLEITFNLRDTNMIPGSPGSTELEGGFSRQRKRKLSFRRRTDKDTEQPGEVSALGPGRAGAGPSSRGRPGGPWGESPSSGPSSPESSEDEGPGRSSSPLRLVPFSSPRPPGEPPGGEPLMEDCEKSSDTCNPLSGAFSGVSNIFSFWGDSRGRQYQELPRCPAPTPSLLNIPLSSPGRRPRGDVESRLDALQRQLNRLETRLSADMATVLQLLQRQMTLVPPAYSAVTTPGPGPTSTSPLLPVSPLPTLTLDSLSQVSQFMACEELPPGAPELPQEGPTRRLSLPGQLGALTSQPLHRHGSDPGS
row,SMILES,"hERG current change (%, negative = inhibition) at 10uM"
1,CCOC(=O)CNC(=O)Cn1cnc2c(nnn2-c2ccc(OC)cc2)c1=O,-7.44%
2,COC(=O)CSC1=C(C#N)C(c2ccsc2)CC(=O)N1 (centres unmarked),12.1%
3,CC[C@@H]1CC=C[C@H]2[C@H]1C(=O)N(Cc1ccccc1)[C@H]2c1ccc(OC)c(Cl)c1,10.6%
4,COC(=O)c1ccc(N=CC2=C(O)CC(c3ccccc3)CC2=O)cc1 (centres unmarked),11.9%
5,O=C1CCN(S(=O)(=O)c2ccccc2)CCN1CCOCc1ccc(C(F)(F)F)cc1,-26.5%
6,Cc1ccc(C(=O)CNc2cc(C)ccc2C)cc1,2.95%
7,CCOC(=O)c1cc2sccc2n1CC(=O)C(C)(C)C,-28.6%
8,CC(=O)c1ccc(-n2nncc2C)cc1,19.8%
9,CCOC(=O)c1cnc(-n2nc(C)cc2C)nc1NC1CCCC1,-26.2%
10,CC(=O)Nc1ccc(S(=O)(=O)N(C)CC(=O)OCC(=O)N(C)C2CCS(=O)(=O)C2)cc1 (centres unmarked),18.8%
11,CC1(C)CCCC2=C1CC1C(=O)N(c3ccccc3)C(=O)C1C2 (centres unmarked),-11.9%
12,Nc1nc2c(nc(SCc3ccccc3Br)n2C2OC(CO)C(O)C2O)c(=O)[nH]1 (centres unmarked),34.9%
13,CC(C)C[C@H](NS(=O)(=O)c1ccc(Br)cc1)C(=O)O,0.986%
14,Cc1cccc(C(=O)N(Cc2cccs2)C2CCS(=O)(=O)C2)c1 (centres unmarked),0.55%
15,Cc1occc1C(=O)NNS(=O)(=O)c1ccc([N+](=O)[O-])cc1,10.5%
16,COc1cc(/C=C2\COC/C(=C\c3ccc(O)c(OC)c3)C2=O)ccc1O,-2.68%
17,Cc1ccccc1-c1nnc(-c2cccs2)o1,0.392%
18,Cc1ccc(C(=O)NC(=S)Nc2ccc(-c3cc4ccccc4oc3=O)cc2)c(C)c1,27.1%
19,O=C(NCc1cccs1)c1ccccc1F,-3.47%

row,SMILES,"hERG current change (%, negative = inhibition) at 10uM"
1,O=C(NNC(=O)C1CCN(S(=O)(=O)c2ccc(Cl)cc2)CC1)c1ccncc1,12.4%
2,CCN1CCc2c(sc(NC(=O)Cc3ccccc3)c2C(N)=O)C1.Cl,-20.3%
3,CC(C)(C)c1ccccc1NC(=O)COC(=O)CN1C(=O)NC2(CCCC2)C1=O,15.8%
4,Cc1ccsc1C(C(=O)NC1CCCCC1)N(C(=O)Cc1cccs1)C1CC1 (centres unmarked),3.07%
5,Cc1ccc(C)c(-n2ccnc2SCC(=O)c2c(N)n(C3CC3)c(=O)[nH]c2=O)c1,-6.14%
6,COc1ccccc1N1CCN(C2CCCN(Cc3cc(F)cc(F)c3)C2)CC1 (centres unmarked),-6.62%
7,Cc1cccc2c(C(=O)Nc3ccc(Br)cc3)cc(-c3ccccn3)nc12,12.9%
8,CO/N=C(\Cn1ncc(N2CCOCC2)c(Br)c1=O)c1ccc(Cl)cc1,-19.7%
9,CN1CCN(CCC(=O)N/N=C/c2cc3c(cc2[N+](=O)[O-])OCO3)CC1,9.64%
10,O=C(Cn1[nH]c(=O)c2ccccc2c1=O)OCC(=O)N1CCCc2ccccc21,-6.41%
11,CCOC(=O)c1oc2ccccc2c1CN1CCOCC1.Cl,-4.56%
12,C=CCn1cnc2c(nnn2-c2ccc(Cl)cc2)c1=O,-37.9%
13,COc1cccc(Cn2cc(C)cc(NC(=O)NCc3ccccc3)c2=O)c1,11.9%
14,CS(=O)(=O)N1CCN(c2ncnc3c2cnn3-c2ccccc2)CC1,3.7%
15,Nc1ccc(C(=O)OCc2nc3ccccc3[nH]2)cc1,14%
16,O=C(O)CC/C(=N\NC(=O)CNC(=O)c1ccc(F)cc1)c1ccccc1,9.42%
17,Cc1nn(-c2ccccc2)c(C)c1NC(=O)COC(=O)[C@@H](NC(=O)c1ccccc1)C(C)C,-2.46%
18,CCOc1ccc(S(=O)(=O)N2CCCCC2)cc1NS(=O)(=O)c1cccs1,4.67%
19,O=C(O)c1ccccc1C(=O)c1ccc(Oc2ccccc2)cc1,8.12%

row,SMILES,"hERG current change (%, negative = inhibition) at 10uM"
1,CCOc1ccc2nc(SCC(=O)N(C)C3CCS(=O)(=O)C3)[nH]c2c1 (centres unmarked),5.53%
2,COc1ccc(C2C(C(=O)c3ccco3)=C(O)C(=O)N2c2nnc(C)s2)cc1OC (centres unmarked),8.49%
3,COc1ccc(OCC(=O)NC(CC(=O)O)c2ccc(OC)c(OC)c2)cc1 (centres unmarked),27.1%
4,COc1ccc(C(=O)C2CCCN(C(=O)c3c4c(nn3C)CCCC4)C2)cc1F (centres unmarked),-9.37%
5,Cc1ccc(S(=O)(=O)NC(=NC2CCCCC2)c2ccc(F)cc2)cc1,-4.09%
6,COC(c1ccccc1)c1nnc(CCC(=O)N(C)CCc2ccccc2)o1 (centres unmarked),-13.1%
7,C[N+](C)(C)CCNC(=O)c1c(O)c2c([nH]c1=O)CCCC2.[I-],16.3%
8,CC(=O)Nc1sc2c(c1C(c1ccccc1)N1CCOCC1)CCCC2 (centres unmarked),10.7%
9,O=C(COC(=O)c1cnccn1)c1ccc(Br)cc1,0.614%
10,COC(=O)C1=C(c2ccc3ccccc3c2)C[C@@H]2CC[C@H]1N2C(=O)N1CCC(C)CC1,3.99%
11,CC(=O)c1cn(-c2ccc(Cl)cc2)c(=O)n(Cc2ccc(Br)cc2)c1=O,-11.9%
12,O=S(=O)(NCc1cccnc1)c1cccs1,10.9%
13,CC(C)c1cc(=O)n2[nH]c(SCc3ccccc3)nc2n1,5.04%
14,Cc1ccc(-n2nc(C)c3c(C)c(CCC(=O)O)c(C)nc32)cc1C,30.7%
15,O=C(NC(n1ccc(=O)[nH]c1=O)C(Cl)(Cl)Cl)C12CC3CC(CC(C3)C1)C2 (centres unmarked),-14.8%
16,CCc1cccc(NC(=O)C2CC2c2ccccc2)c1 (centres unmarked),14.5%
17,CCCCCC(C)n1[nH]c(=O)cc1N (centres unmarked),13%
18,CN(Cc1ccccc1)C(=O)c1[nH]cnc1C(=O)Nc1nccs1,-4%
